According to the supplement of paper PMC12217912:
This is one part of the list. Sequences were assembled here from the parent chain. Values near 0.05 are background.

B1: TEV protease; numbered along this chain (parent)
chain: MGESLFKGPRDYNPISSSICHLTNESDGHTTSLYGIGFGPFIITNKHLFRRNNGTLVVQSLHGVFKVKDTTTLQQHLVDGRDMIIIRMPKDFPPFPQKLKFREPQREERICLVTTNFQTKSMSSMVSDTSCTFPSGDGIFWKHWIQTKDGQCGSPLVSTRDGFIVGIHSASNFTNTNNYFTSVPKNFMELLTNQEAQQWVSGWRLNADSVLWGGHKVFMVKPEEPFQPVKEATQL

Variants of: B1
Test: raw area under fraction-flipped curve 0-4 h after induction (AUC4h, not background-subtracted), DNA-recorder readout of cleavage of the substrate (dimensionless); higher = more cleavage of the substrate by the protease variant
Conditions: temperature: 34 °C; time window: 0-4 h after rhamnose induction
Method: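 In vivo DNA recorder in E. coli TOP10(DE3) ΔrhaA at 34 °C. Each TEVp single-site mutant (parent TEVp 0) is paired with a single-site variant of the 7-mer TEVs (canonical ENLYFQ|S). The substrate sits between flexible linkers in a Bxb1-sfGFP-TEVs-SsrA fusion, so cleavage stabilises Bxb1 and speeds flipping of a recombination array, read by NGS. The value is the raw area under the fraction-flipped curve over 0-4 h after rhamnose induction (AUC4h), with ≥20 reads per time point. It is not background-subtracted; inactive controls average about 0.047.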
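Note: Bxb1 expression induced with 0.2% (w/v) L-rhamnose at OD600 near 0.5, cultures sampled hourly, flipped fraction per protease–substrate barcode pair counted by paired-end Illumina sequencing.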

| Variant | area with substrate ENLYCQS | area with substrate ENLYDQS | area with substrate ENLYGQS | area with substrate ENLYHQS | area with substrate ENLYIQS | area with substrate ENLYKQS | area with substrate ENLYLQS | area with substrate ENLYMQS | area with substrate ENLYQQS | area with substrate ENLYRQS | area with substrate ENLYVQS | area with substrate ENLYEQS | area with substrate ENLYNQS | area with substrate ENLYSQS | area with substrate ENLYTQS | area with substrate ENLYWQS | area with substrate ENLYPQS | area with substrate ENLYYQS |
| --- | --- | --- | --- | --- | --- | --- | --- | --- | --- | --- | --- | --- | --- | --- | --- | --- | --- | --- |
| D137L | 0.104 | 0.061 | 0.0357 | 0.0683 | 0.14 | 0.0461 | 0.0863 | 0.0725 | 0.068 | 0.0635 | 0.101 | – | – | – | – | – | – | – |
| I139A | 0.0848 | 0.0516 | – | 0.039 | 0.086 | 0.0546 | – | – | – | 0.0527 | 0.11 | 0.063 | 0.0657 | 0.0668 | 0.0725 | 0.0911 | – | – |
| K142S | 0.0603 | 0.0646 | 0.068 | 0.0722 | – | – | – | 0.0785 | 0.0611 | 0.0741 | 0.103 | 0.0584 | 0.0695 | 0.0812 | 0.0896 | 0.076 | 0.0642 | 0.0593 |
| H143A | 0.0809 | 0.0594 | – | 0.0603 | 0.0978 | 0.0625 | – | 0.0701 | 0.0623 | – | 0.0931 | 0.0669 | 0.0647 | 0.0688 | – | 0.0718 | 0.061 | 0.0548 |
| T147E | 0.0597 | 0.0513 | 0.0502 | 0.0634 | 0.0544 | 0.0598 | 0.0643 | 0.0658 | 0.0659 | 0.0534 | 0.0561 | 0.0602 | 0.0647 | 0.0596 | 0.0586 | 0.0525 | 0.0755 | – |
| P155L | 0.0316 | 0.0539 | 0.0468 | 0.0562 | 0.0941 | 0.0494 | – | – | 0.0758 | 0.0561 | – | 0.0428 | 0.056 | 0.0583 | – | 0.0302 | 0.0268 | 0.0428 |
| F180L | 0.0835 | – | – | – | – | 0.0866 | 0.0578 | 0.0534 | 0.0498 | – | 0.131 | 0.0654 | – | – | – | 0.061 | – | – |
| T181L | 0.0662 | – | 0.0489 | 0.0575 | – | – | 0.0391 | – | 0.0531 | 0.0576 | 0.0751 | 0.0607 | 0.0556 | 0.0893 | – | 0.0507 | 0.059 | – |
| F187I | 0.0919 | – | 0.0705 | 0.0676 | 0.108 | 0.141 | – | – | 0.0608 | 0.0644 | 0.108 | 0.0609 | 0.0534 | – | 0.0822 | 0.107 | 0.0673 | 0.0535 |
| N206G | 0.0567 | 0.0622 | 0.0734 | 0.0653 | 0.102 | 0.0937 | 0.0965 | 0.0751 | 0.0792 | – | 0.121 | 0.0675 | 0.0719 | – | – | 0.0629 | 0.0688 | 0.0633 |
| W212K | 0.0661 | – | 0.0535 | – | 0.0491 | 0.0514 | 0.0587 | 0.0661 | – | 0.0462 | 0.0647 | 0.0616 | 0.0595 | 0.0629 | 0.0639 | 0.0391 | 0.0628 | 0.0555 |
| G213F | 0.0369 | – | 0.0472 | 0.0538 | 0.0526 | – | 0.0409 | 0.053 | 0.0572 | – | – | 0.0586 | 0.0588 | 0.0558 | – | 0.0557 | – | 0.0846 |
| M219C | 0.0832 | 0.0525 | 0.0469 | 0.0682 | 0.117 | 0.063 | – | 0.0991 | – | 0.058 | 0.0927 | 0.0739 | – | – | – | – | 0.0635 | – |
| M219E | 0.0625 | 0.0543 | 0.0557 | 0.0699 | – | 0.0547 | – | 0.0668 | – | 0.0605 | 0.0593 | 0.0742 | 0.0681 | 0.0617 | – | – | 0.0425 | 0.0695 |
| E223T | 0.0768 | 0.0573 | 0.049 | 0.0651 | 0.102 | 0.0565 | – | 0.0731 | 0.0635 | – | 0.113 | 0.0761 | 0.0718 | 0.0756 | 0.0646 | – | 0.0674 | 0.107 |
| K230E | 0.082 | 0.0492 | 0.0679 | – | 0.116 | 0.0514 | 0.0838 | 0.0827 | 0.073 | – | 0.0908 | 0.0536 | 0.0564 | 0.0763 | 0.118 | 0.0839 | – | – |
| K230V | 0.0858 | 0.0609 | – | 0.065 | – | 0.0571 | – | 0.0744 | – | 0.0627 | 0.114 | 0.0682 | 0.0641 | – | – | – | 0.0647 | – |
| T233H | 0.101 | 0.0608 | 0.108 | 0.0521 | 0.0701 | 0.0789 | – | – | – | 0.0577 | 0.0893 | 0.0528 | 0.0761 | 0.0738 | 0.0937 | 0.066 | 0.0718 | – |
| Q234I | 0.091 | – | 0.0596 | 0.0664 | 0.136 | 0.0812 | – | 0.0947 | 0.0577 | 0.0626 | 0.0893 | 0.0647 | 0.0691 | – | 0.0793 | 0.082 | – | – |
| S4G | – | 0.0558 | 0.0621 | 0.0727 | 0.127 | 0.0445 | 0.102 | 0.0581 | 0.0692 | 0.0634 | 0.11 | 0.0597 | 0.06 | 0.0805 | 0.0803 | 0.0978 | 0.0804 | 0.0616 |
| S4M | – | 0.0624 | 0.0698 | – | 0.106 | 0.0549 | 0.0857 | 0.0913 | – | 0.0686 | 0.127 | 0.0617 | 0.0702 | 0.0477 | 0.0591 | 0.0637 | 0.0718 | – |
| F6H | – | 0.0465 | 0.0682 | 0.0827 | 0.0843 | 0.0599 | – | 0.0494 | – | – | 0.128 | – | 0.0872 | – | 0.0929 | 0.0759 | – | 0.069 |
| R10C | – | 0.0535 | 0.0651 | 0.0812 | – | 0.0523 | 0.0833 | 0.105 | 0.0885 | 0.0473 | 0.0929 | 0.0765 | 0.0705 | 0.0755 | – | – | 0.0753 | – |
| R10P | – | 0.062 | 0.0637 | 0.0652 | 0.0962 | 0.0698 | 0.0613 | 0.0873 | 0.0645 | 0.0726 | 0.106 | – | 0.0697 | 0.0739 | 0.0708 | 0.0764 | 0.0803 | 0.0489 |
| D11A | – | 0.058 | 0.0609 | 0.0665 | – | 0.052 | – | 0.0809 | 0.0564 | 0.0739 | 0.1 | 0.0668 | 0.056 | – | 0.0751 | 0.0822 | 0.0693 | 0.0616 |
| D11Q | – | 0.0587 | 0.0599 | 0.064 | 0.1 | 0.0618 | 0.071 | 0.0721 | 0.0631 | 0.0666 | 0.0944 | 0.0761 | 0.0745 | 0.0695 | – | 0.0679 | 0.0746 | 0.059 |
